Test results published in the supplement of paper PMC11417369.
Some of the results follow.

Tested on: PfHDP1 homeodomain (GST-tagged)
Experiment: gcPBM binding intensity (ln(normalized median fluorescence intensity)); higher = stronger DNA binding
In short: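 The highest Masliner-normalised natural-log median intensity across replicate spots of either probe orientation is reported as binding intensity. GST-tagged P. falciparum DNA-binding domains expressed in E. coli were applied for 1 h to an Agilent 4 × 180k array of primer-extended double-stranded 36-bp intergenic genomic probes plus negative controls, and bound protein was detected with Alexa488 anti-GST antibody and scanned at 488 nm.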

Sequence	gcPBM binding intensity (ln)
TATTTTTCTTTTTTTTTTTTTTTTATATTATACGTG [XGTACX_negctrl_site363]	5.94
CTTTTTAAATTAAAATGTACAGAAAAATATTATTAT [XGTACX_site8760]	6.3
GAAAATCAGTTAAACACACACATAAAAAAAAAAAAA [CACACA_site2875]	6.24
ATCATATGTATGCATACACACAAAAAGTTATTTATA [CACACA_site6325]	6.86
TGGGAAAACCCCAGAAGTACGCTTAATATAAAAAAT [XGTACX_site697]	6.19
ATAATGTTCCTATGATGTACTTATAATTATCATTTT [XGTACX_site4017]	6.74
AAGAGGTTATTACATTCACATAACATCAATATACGT [GTGCAC_negctrl_site264]	6.13
ATTAAAATAATATAAACACACATATACTTTTTTCTA [CACACA_site565]	6.25
TATTGTTCGTTTAAGGTGCTATTGTTTGCAAAATAT [GTGCAC_site9412]	8.8
ATTTAAAAAAAAATGGCACACATTTTAATTTTATGT [CACACA_site1740]	5.92
TTTTTAATGATCAGACGTACAGTTATGAAGAAATTT [XGTACX_site6394]	6.66
TTTTTGTTTCGTTACGCATGCCAAAAGTAAAAATAT [TGCATGCA_site536]	6.86
TTGTGTCATATATTTTGTAATCAAAATAATTTTATT [TGCATGCA_negctrl_site307]	6.31
TATTATAAATTAATTTTAAACTTTATTATTATGATA [GTGCAC_negctrl_site389]	6.25
GTAATGTCGTCGTTTTGTACATATTTTTATAAAAAG [XGTACX_site2688]	7.06
TTAAAATTATATCTGTGTACATAAATTGTGTAACTA [XGTACX_site1966]	6.37
TATTAGTCGAATGATGTACACACATACAAAACATTT [CACACA_site9331]	6.42
AAAGGAGACAGAATAAGAATAAATATTATACATATA [XGTACX_negctrl_site412]	6.21
AAAAAAAAAAAGAACTCACACATAATAATGTATATG [CACACA_site4974]	6.07

Sequence	gcPBM binding intensity (ln)
TTTTATCTCATTCATCAAAATCACCGGAATCATATA [CACACA_negctrl_site357]	6.54
AGGTATATATTACAAGTGCACTGTAAAATTAAAATT	10.5
TAATAAACAAATTCCAAAATAAATTAAAAGGAAAAT [CACACA_negctrl_site1404]	6.03
ATTTTATCATAATAAAGTACAAAGATGCAAATAATA [XGTACX_site2270]	7.55
TATGCTATAATACTCTGTACTTACTAATTTAATAAT [XGTACX_site5926]	6.55
ATAAAATAAATGAAAAATGTAAAATGAGAAAAAAAT [CACACA_negctrl_site1026]	6.96
TATATATATATATGGGTGCATTTTTTTGTCCATGTA [GTGCAC_site9868]	9.37
TACATATTTTTTATATGTACATATTTTTTATGTGTA [XGTACX_site442]	6.36
ATTCATATGTGACACACACACACACGCATAAAAAAA [CACACA_site7515]	6.87
TAGCGTACATTTCATTGTAATCATAAAAAATAAAGA [CACACA_negctrl_site447]	6.49
TTAAAACATATTTTGAATTAATATATTTTAATATTA [XGTACX_negctrl_site148]	5.65
TTTATTAGAACCGTACGTACATAGTTATTTTTTCAA [XGTACX_site8848]	6.1
ACAAAAATATATATATGTACATATATCATCATAATA [XGTACX_site5850]	6.37
TTTAAAACCCTAAAAAAAAAAAAAAAAAAAAAAAAA [CACACA_negctrl_site1212]	6.26
GTTTGTATAGGTTCATGTACAAAAAAAAAAAAAAAA [XGTACX_site537]	6.52
ATGCATAAAAGAAATACACACATAAATATGTAAATA [CACACA_site7087]	6.36
TTAATCATAAAAGTCACACATAATAAGAAAAAGCTT [CACACA_site4616]	6.57
AATATATGAATTAGAAGTACAAATAAATATTTATTT [XGTACX_site2062]	6.48
AATTAAAAATATAAATGTACATATATGTAAAACTTT [XGTACX_site123]	6.8

Sequence	gcPBM binding intensity (ln)
CCCATGCATTTTTGCACACACATATATATATAAATA [CACACA_site1430]	10.8
ATATACACATAAAGTAGTACACCTGAAATTTTTTTT [XGTACX_site2951]	6.54
AATTCATTTAAAAGTTGTACAAGCTTAATAAAAAAA [XGTACX_site6073]	6.75
GAGGATATATTATATGTACACACATATATAACGGAT [CACACA_site8361]	6.83
AATACAATTTATAACACACACACAATAATACATATA [CACACA_site1252]	7.02
GTATTTTTTTTAATATGTACATATAAAATATTTTAT [XGTACX_site8329]	6.98
ATATAAGTTTATATATGTACATATATATATTATATA [XGTACX_site2068]	6.26
CCTCCCATTTTTACACGTACACATTTAAAATAGACT [XGTACX_site5640]	7.1
TGAAGAAAATATTAATGTACATATTATATATATATA [XGTACX_site5497]	8.64
ATAATAAAAAAAAAATGTACATAAATCTAAAATCCT [XGTACX_site5823]	6.22
ATATATTTAAATAAAAGTACGTAAAGGTATATTTAA [XGTACX_site8088]	6.8
AATATAATGTAATATACACACATATATTTCTCTTTT [CACACA_site5451]	6.66
AAGAGTTTGAAGTTTGCACACTACGTTAAAAATAAA [CACACA_site3939]	10.2
AAAAATTTATTTTTAGGTACACAATTGAATTATTTA [XGTACX_site7008]	6.01
CCACATTTTACAGACACACACAATTTATATTACGGT [CACACA_site1894]	6.67
TGTAGTCTGGAGAAAAGTACATAGTATCTGATAACC [XGTACX_site2018]	6.4
GTGCATATATGATATACACACAATATAATAGTATGT [CACACA_site2460]	7.18
TTGTCCCTATAAGGGGAACACACATAAATGAATATA [CACACA_site8250]	6.15
